Measured values as given in patent US9290570B2, “Pan-ELR+ CXC Chemokine Antibodies” (Eli Lilly and Company, priority 2013, dated 2016).

Experiments:
[1] = Physical stability evaluation, % HMW aggregate by analytical SEC; type: physicochemical; settings: 50 mg/mL; after 1 and 4 weeks at 25° C.
Excerpt: Protein aggregation and self-association is an undesirable property in antibodies as it could potentially exacerbate unwanted effects, such as triggering an immune response. Thus, maintaining the antibody in a monomeric state is highly desirable. Percent high molecular weight (% HMW) aggregate is an indicator of protein aggregation and self-association. A higher % HMW aggregate indicates increased protein aggregation/self-association and increased physical instability. Physical stability of Antibody 1 and Antibody 2 are determined as follows.
Antibody is dialyzed overnight at 4° C. into 10 mM Citrate, pH 6+/−150 mM NaCl. The next morning, the samples are concentrated to 50 mg/mL, filtered through 0.2 micron filters, and then Tween-80 is added to a final concentration of 0.02%. Each sample is incubated at 25° C. for the specified times. Soluble aggregate formation is followed by analytical SEC using a TSK3000SWXL, 5 micron column with dimensions 30 cm×0.78 cm.
The 50 mg/mL formulations are incubated for 1 and 4 weeks at 25° C. to assess longer-term stability under stress conditions. The delta % HMW aggregate is determined by subtracting the % HMW aggregate at time zero (designated as ‘Initial’ in Table 3) from the % HMW at the 1 week or 4 week time point.

[2] = molecular target: T1, A35P human CXCL8 point mutant (Homo sapiens, UniProt P10145, A62P); assay: Biacore binding kinetics, A35P human CXCL8 point mutant; settings: 25° C.
T1 construct: His-SUMO (N, cleaved yes); made in house; host or cells: E. coli
T1 sequence (P10145 28-99 A62P): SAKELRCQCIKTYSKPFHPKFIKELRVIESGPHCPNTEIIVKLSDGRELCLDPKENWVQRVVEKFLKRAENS
Excerpt: (§1) Several key contacts between the Antibody 1 Fab and wild type human CXCL8 are observed in the crystal structure and are further tested through binding kinetic studies and U937-huCXCR2 fluorescent imaging plate reader (FLIPR) neutralization of human CXCL8 point mutants. To study these key contacts, several point mutants (R6A, I10A, A35P, I40A, and L49A) are made based on the human CXCL8 sequence (SEQ ID NO: 27). Wild type, R6A, I10A, A35P, I40A, and L49A human CXCL8 point mutants are expressed, refolded, and purified according to standard techniques. Formation of disulfide bonds is confirmed by tryptic digest and mass fingerprint analysis, and activity is confirmed by neutrophil chemotaxis assay.
(§2) Binding kinetics are tested on a Biacore 2000 instrument with Biacore 2000 Evaluation Software Version 4.1 as described above.
(§3) The on-rate (kon) and off-rate (koff) for each ligand are evaluated using a “1:1 (mass transfer) Binding” binding model. The affinity (KD) is calculated from the binding kinetics according to the relationship: KD=koff/kon.

[3] = molecular target: T2, wild type human CXCL8 (Homo sapiens, UniProt P10145); assay: Biacore binding kinetics, wild type human CXCL8 (mutational analysis); settings: CXCL8 WT; 25° C.
T2 construct: made in house; host or cells: E. coli (stated in b60 for the truncated 1-66 wild type)
T2 sequence (P10145 28-99 limits assumed): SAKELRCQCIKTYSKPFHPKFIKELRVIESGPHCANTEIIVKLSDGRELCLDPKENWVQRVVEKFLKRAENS
Excerpt: as §1, §2, §3

[4] = molecular target: T3, I10A human CXCL8 point mutant (Homo sapiens, UniProt P10145, I37A); assay: Biacore binding kinetics, I10A human CXCL8 point mutant; settings: 25° C.
T3 construct: His-SUMO (N, cleaved yes); made in house; host or cells: E. coli
T3 sequence (P10145 28-99 I37A): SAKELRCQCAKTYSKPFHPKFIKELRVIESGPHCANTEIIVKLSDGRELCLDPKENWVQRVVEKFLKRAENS
Excerpt: as §1, §2, §3

[5] = molecular target: T4, I40A human CXCL8 point mutant (Homo sapiens, UniProt P10145, I67A); assay: Biacore binding kinetics, I40A human CXCL8 point mutant; settings: 25° C.
T4 construct: His-SUMO (N, cleaved yes); made in house; host or cells: E. coli
T4 sequence (P10145 28-99 I67A): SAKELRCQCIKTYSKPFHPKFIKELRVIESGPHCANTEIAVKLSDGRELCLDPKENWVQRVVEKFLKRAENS
Excerpt: as §1, §2, §3

[6] = molecular target: T5, L49A human CXCL8 point mutant (Homo sapiens, UniProt P10145, L76A); assay: Biacore binding kinetics, L49A human CXCL8 point mutant; settings: 25° C.
T5 construct: His-SUMO (N, cleaved yes); made in house; host or cells: E. coli
T5 sequence (P10145 28-99 L76A): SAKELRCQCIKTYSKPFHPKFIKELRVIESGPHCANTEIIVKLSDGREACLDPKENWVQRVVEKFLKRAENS
Excerpt: as §1, §2, §3

[7] = system: DSS-induced colitis; assay: In vivo acute DSS colitis model in mice; settings: Day 8, 25 mg/kg subcutaneous Day 0, 2, 4, 8
Protocol: Dextran sulfate sodium (DSS) is the most commonly used model of Ulcerative Colitis (UC). In this model, DSS is a chemical irritant that is added to drinking water to induce acute disease that resembles UC. The acute phase of DSS colitis is characterized by the recruitment of neutrophils to the mucosa and submucosa, and increased expression of ELR^+ CXC chemokines. However, chronic exposure to DSS causes severe gut damage and significant weight loss, which is not suitable in a colitis model. To accommodate the acute nature of this model, Antibody 1 was used in a prophylactic manner to test its ability to inhibit the recruitment of neutrophils and the development of colitis.
C57BL/6 mice, 8-10 wks old, weighing 18-22 g, are obtained. Blood is collected by cardiac puncture and analyzed to establish a baseline. To induce colitis, mice receive 2.5% DSS (MW=36,000-50,000) in the drinking water for 5 days (Days 1-5) followed by 6 days of no DSS water (reflecting acute inflammation). Control healthy mice receive water only (“no DSS” group). Mice receiving DSS are dosed by subcutaneous injection on Day 0, 2, 4, and 8 with human IgG4 control antibody (25 mg/kg) or Antibody 1 (25 mg/kg). Body weight is recorded daily. The number of mice used for each treatment is 9 (except 5 healthy mice are used in the healthy “no DSS” group.) The study is performed in quadruplicate.

| Molecule | delta % HMW [1] | koff [2] | kon [2] | koff [3] | kon [3] | koff [4] | kon [4] | koff [5] | kon [5] | koff [6] | kon [6] | % of Initial Body Weight [7] |
| --- | --- | --- | --- | --- | --- | --- | --- | --- | --- | --- | --- | --- |
| Antibody 1: Antibody with heavy chain SEQ ID NO: 1 and light chain SEQ ID NO: 3, expressed in NSO cells (antibody) heavy: QVQLVQSGAEVKKPGASVKVSCKASGYEFTSYWIHWVRQAPGQGLEWMGNISPNSGSANYNEKFKSRVTMTRDTSTSTVYMELSSLRSEDTAVYYCAREGPYSYYPSREYYGSDLWGQGTLVTVSSASTKGPSVFPLAPCSRSTSESTAALGCLVKDYFPEPVTVSWNSGALTSGVHTFPAVLQSSGLYSLSSVVTVPSSSLGTKTYTCNVDHKPSNTKVDKRV[human IgG4 Fc with S228P (EU numbers) not spelt out] light: EIVLTQSPATLSLSPGERATLSCRASQSISNNLHWYQQKPGQAPRLLIYYTSRSVSGIPARFSGSGSGTDFTLTISSLEPEDFAVYYCGQNNEWPEVFGGGTKVEIKRTVAAPSVFIFPPSDEQLKSGTASVVCLLNNFYPREAKVQWKVDNALQSGNSQESVTEQDSKDSTYSLSSTLTLSKADYEKHKVYACEVTHQGLSSPVTKSFNRGEC | below 1% | 4.97 ± 1.72 × 10^−3 s^−1 | 1.06 ± 0.07 × 10^6 M^−1 s^−1 | 4.41 ± 4.55 × 10^−4 s^−1 | 3.03 ± 3.78 × 10^6 M^−1 s^−1 | 3.44 ± 0.01 × 10^−4 s^−1 | 2.77 ± 0.39 × 10^5 M^−1 s^−1 | 4.24 ± 1.16 × 10^−4 s^−1 | 1.61 ± 0.21 × 10^4 M^−1 s^−1 | 5.44 ± 0.42 × 10^−4 s^−1 | 1.43 ± 0.24 × 10^5 M^−1 s^−1 | 94.0% |
| Antibody 2: Antibody with heavy chain SEQ ID NO: 13 and light chain SEQ ID NO: 15, expressed in NSO cells (antibody) heavy: QVQLVQSGAEVKKPGASVKVSCKASGYEFTSYWIHWVRQAPGQGLEWMGNISPNSGSANYNEKFKSRVTMTRDTSTSTVYMELSSLRSEDTAVYYCAREGPYSYYPSRQYYGSDLWGQGTLVTVSSASTKGPSVFPLAPCSRSTSESTAALGCLVKDYFPEPVTVSWNSGALTSGVHTFPAVLQSSGLYSLSSVVTVPSSSLGTKTYTCNVDHKPSNTKVDKRV[human IgG4 Fc with S228P (EU numbers) not spelt out] light: EIVLTQSPATLSLSPGERATLSCRASQSISNNLHWYQQKPGQAPRLLIYYTSRSVSGIPARFSGSGSGTDFTLTISSLEPEDFAVYYCGQNNEWPEVFGGGTKVEIKRTVAAPSVFIFPPSDEQLKSGTASVVCLLNNFYPREAKVQWKVDNALQSGNSQESVTEQDSKDSTYSLSSTLTLSKADYEKHKVYACEVTHQGLSSPVTKSFNRGEC | below 1% | – | – | – | – | – | – | – | – | – | – | – |
